Data reported in PubChem BioAssay AID1347165 (National Center for Advancing Translational Sciences (NCATS), 2019).
The campaign covered roughly 220,000 compounds. About 5,700 (2.6%) were called active. Inconclusive means that the source gave no clear call. Such entries were picked first, then a sample of the others. Calls follow the shape of the dose curve; as a rule, active = well fitted inhibition curve with a large enough effect; inconclusive = small, poorly fitted or top-dose-only effect; inactive = no such curve, though single readings can be large or run the other way. Where the call is inconclusive, the potency comes from a doubtful curve fit.
Also: nearly all actives have a fitted effect of over 70% in size.
For activity change, negative = inhibition in this document: 0% is about no effect.
Potency is read from the fitted curve at half-maximal effect; tags tell the direction and shape of the fitted curve.

These compounds were tested against Lysine-specific demethylase 5B (Homo sapiens) (UniProt Q9UGL1) (assay: Primary screen for KDM5B Histone Demethylases FDH-coupled qHTS). Settings: FDH-coupled NADH fluorescence (FDH is formaldehyde dehydrogenase); activity change, negative = inhibition: at 57.7 µM (top of the series) unless noted.
Chain of UniProt Q9UGL1 (Q9UGL1 whole entry, looked up): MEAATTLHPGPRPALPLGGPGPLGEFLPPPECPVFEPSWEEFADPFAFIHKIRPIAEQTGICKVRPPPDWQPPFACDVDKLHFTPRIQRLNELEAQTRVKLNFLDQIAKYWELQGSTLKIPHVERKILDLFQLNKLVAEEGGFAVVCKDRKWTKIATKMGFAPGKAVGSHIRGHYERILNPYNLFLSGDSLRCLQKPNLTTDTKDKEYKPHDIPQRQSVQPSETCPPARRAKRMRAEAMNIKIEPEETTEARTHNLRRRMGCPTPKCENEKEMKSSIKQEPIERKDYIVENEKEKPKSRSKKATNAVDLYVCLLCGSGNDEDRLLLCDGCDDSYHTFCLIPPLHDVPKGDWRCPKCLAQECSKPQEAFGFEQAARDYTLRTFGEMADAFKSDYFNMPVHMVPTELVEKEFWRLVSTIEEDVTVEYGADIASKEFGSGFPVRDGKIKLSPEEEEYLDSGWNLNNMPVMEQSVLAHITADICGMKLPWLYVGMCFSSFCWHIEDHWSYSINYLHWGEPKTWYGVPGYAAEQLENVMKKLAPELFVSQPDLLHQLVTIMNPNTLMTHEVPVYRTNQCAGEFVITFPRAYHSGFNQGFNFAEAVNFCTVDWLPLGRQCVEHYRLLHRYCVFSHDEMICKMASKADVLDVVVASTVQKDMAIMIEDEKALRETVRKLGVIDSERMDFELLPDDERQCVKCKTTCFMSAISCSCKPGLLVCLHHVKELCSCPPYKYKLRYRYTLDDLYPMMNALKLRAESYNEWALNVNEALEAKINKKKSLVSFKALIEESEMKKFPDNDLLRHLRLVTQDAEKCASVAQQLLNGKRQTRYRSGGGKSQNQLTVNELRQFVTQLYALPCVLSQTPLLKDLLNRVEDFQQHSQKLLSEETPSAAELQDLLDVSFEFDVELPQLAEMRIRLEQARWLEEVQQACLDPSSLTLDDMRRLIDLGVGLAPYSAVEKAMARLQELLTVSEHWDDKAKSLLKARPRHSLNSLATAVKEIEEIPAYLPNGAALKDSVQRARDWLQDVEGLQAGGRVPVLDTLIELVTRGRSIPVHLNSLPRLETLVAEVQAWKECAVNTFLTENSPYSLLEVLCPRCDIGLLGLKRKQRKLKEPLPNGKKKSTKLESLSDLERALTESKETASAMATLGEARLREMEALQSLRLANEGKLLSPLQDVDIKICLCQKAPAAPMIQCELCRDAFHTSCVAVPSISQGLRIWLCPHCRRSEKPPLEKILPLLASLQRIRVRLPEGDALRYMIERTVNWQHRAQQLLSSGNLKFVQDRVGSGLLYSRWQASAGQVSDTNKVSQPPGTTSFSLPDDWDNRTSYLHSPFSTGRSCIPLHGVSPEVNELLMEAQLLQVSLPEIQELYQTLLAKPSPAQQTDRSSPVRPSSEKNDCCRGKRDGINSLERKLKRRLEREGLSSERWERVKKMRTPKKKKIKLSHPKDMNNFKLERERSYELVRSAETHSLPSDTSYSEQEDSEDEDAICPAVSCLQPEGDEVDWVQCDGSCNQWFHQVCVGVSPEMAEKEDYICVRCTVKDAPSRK
Method in brief: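 Coupled FDH/NAD⁺ fluorescence readout. KDM5BΔAP 200 nM final; compound titration, 10 min RT preincubation; substrate mix 12.5 µM H3K4me3, 25 µM 2-OG, 50 µM Fe(II), 100 µM ascorbate, 0.25 mM NAD⁺, 0.25 U/mL FDH; ΔRFU over 30 min.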
With `COc1ccc(CN2Cc3[nH]nc(-c4cccc(NC(C)=O)c4)c3CC2=O)cc1` the Potency was inconclusive: 35.5 µM [inhibitor, single point]. With `COc1ccc(-c2oc3ncn4nc(COc5c(C)cccc5C)nc4c3c2-c2ccc(OC)cc2)cc1` the Potency was inconclusive: 31.6 µM [inhibitor, partial curve, poor fit]. In the case of `CC(C)CC(=O)Nc1ccc(-c2nc3cc(Cl)ccc3o2)cc1`, the “activity change, negative = inhibition” value is reported as inactive: -7.46%. For `COc1ccc2c(c1)CCN=C2C[C@H]1CN(C(=O)Cc2cccs2)CC[C@H]1CC(=O)O`, the Potency was active: 35.5 µM. With `COCC1CN(Cc2cnn(C(C)C)c2)CC12CCNCC2` (stereo not drawn) the Potency was inconclusive: 8.91 µM [inhibitor, partial curve]. `CCOc1ccccc1NC(=O)N1CCc2cc(S(=O)(=O)N3CCC(C)CC3)ccc21` was tested, and the Potency was inconclusive: 15.8 µM [inhibitor, partial curve, poor fit]. In the case of `Cc1cncc(-c2ccc(S(N)(=O)=O)cc2F)c1`, the Potency is reported as inconclusive: 11.2 µM [inhibitor, partial curve, poor fit]. In the case of `CN1C(=O)c2cccn2CC1C(=O)NCCCN1CCCc2ccccc21` (stereo not drawn), the Potency is reported as inconclusive: 22.4 µM [inhibitor, single point]. `COC(=O)c1c(-c2cccs2)csc1NC(=O)COc1c(C)ccc(C)c1C` was tested, and the Potency was inconclusive: 25.1 µM [inhibitor, partial curve, poor fit]. In the case of `NS(=O)(=O)c1ccc(C(=O)N[C@H](c2cccs2)C2CC(O)C2)cc1` (stereo partly drawn), the “activity change, negative = inhibition” value is reported as inactive: 3.26%. With `C/C(=N/O)c1cnn(-c2ccccc2)c1C` the “activity change, negative = inhibition” value was inactive: 24.9%. For `CCOC(=O)c1ccc(NC(=O)N2CCOc3ccccc32)cc1`, the Potency was inconclusive: 39.8 µM [inhibitor, single point]. With `COc1ccc(-c2ccc3c(c2)C(=O)N2CCN(C(=O)c4cccnc4)C[C@@H]2C(=O)N3)cc1` the Potency was inconclusive: 28.2 µM [inhibitor, single point]. In the case of `COCCCNC(=O)C(=O)Nc1c2c(nn1-c1cccc(Cl)c1)CSC2`, the Potency is reported as inconclusive: 25.1 µM [inhibitor, single point]. `CCN(CC)CCCNc1oc(/C=C/c2cccs2)nc1C#N` was tested, and the Potency was inconclusive: 25.1 µM [inhibitor, partial curve, poor fit]. `CCOc1ccccc1CNC(=O)c1c(C)noc1-c1cccs1` was tested, and the Potency was inconclusive: 31.6 µM [inhibitor, partial curve, poor fit]. `COc1ccc(-c2noc(-c3ccc(N4CCN(C)CC4)c([N+](=O)[O-])c3)n2)cc1OC` was tested, and the Potency was inconclusive: 14.1 µM [inhibitor, partial curve, poor fit]. With `COCCNC(=O)c1ccc(CN2C(=O)NC3(CCS(=O)(=O)CC3)C2=O)cc1` the Potency was inconclusive: 7.08 µM [inhibitor, partial curve, poor fit]. `Cc1ccc(O)c(C(=O)OC(C)C(=O)Nc2ccc3c(c2)OCO3)c1` (stereo not drawn) was tested, and the Potency was inconclusive: 35.5 µM [inhibitor, partial curve, poor fit]. `Cc1nc(N2CCN(CC(=O)N3CCCC3)CC2)c(C#N)c2c1COC(C)(C)C2` was tested, and the Potency was inconclusive: 25.1 µM [inhibitor, partial curve, poor fit]. For `Cc1c(O)ccc2c(CN3CCN(Cc4cccc(C(F)(F)F)c4)CC3)cc(=O)oc12`, the Potency was inconclusive: 20 µM [inhibitor, partial curve, poor fit]. In the case of `O=C(c1ccc(OCc2ccncc2)cc1)N1CCN(C2CCS(=O)(=O)C2)CC1` (stereo not drawn), the “activity change, negative = inhibition” value is reported as inactive: 18.1%. For `Cc1nc2c(C(=O)NCCc3ccc(Cl)cc3)c[nH]n2c(=O)c1Cc1ccc(Cl)cc1`, the Potency was inconclusive: 25.1 µM [inhibitor, partial curve, poor fit]. With `COc1ccccc1C(=O)Nc1c(C(=O)N(C)Cc2ccccc2)sc2nc(C)c(Cl)c(C)c12` the Potency was inconclusive: 39.8 µM [inhibitor, single point]. In the case of `COc1ccc(CN2CCNc3cnc(Nc4ccccc4)cc3C2)cc1O`, the Potency is reported as active: 39.8 µM. For `CC(=O)Nc1ccc(C(=O)N2CCN(C3CCNCC3)C(=O)C2)cc1`, the “activity change, negative = inhibition” value was inactive: -28.1% [at 115 µM]. `CN(C)C[C@@H]1CN(c2ncccn2)C[C@H]1NC(=O)c1cccn1C` was tested, and the Potency was active: 28.2 µM. In the case of `O=C1N(c2ccccc2)c2ccccc2C12CCN([S+](=O)([O-])c1cccs1)C2` (stereo not drawn), the Potency is reported as inconclusive: 56.2 µM [inhibitor, partial curve, poor fit]. In the case of `Cc1ccc2c(c1)-c1nc(-c3ccc4c(c3)NC(=O)CO4)cc(-c3ccc(F)cc3)c1CO2`, the Potency is reported as inconclusive: 2.51 µM [inhibitor, full curve, poor fit]. For `NC(=O)c1ccc(-c2nc(CSc3ccc4c(c3)OCCCO4)cs2)cc1`, the “activity change, negative = inhibition” value was inactive: -17.2%. In the case of `COc1ccccc1CCNC(=O)c1ccc2c(c1)c(C)c(C)n2Cc1ccc(Cl)cc1`, the Potency is reported as inconclusive: 17.8 µM [inhibitor, partial curve, poor fit]. In the case of `C=CCN1CCCN(Cc2ccc(C#N)cc2)CC1`, the “activity change, negative = inhibition” value is reported as inactive: 29%. `CNC(C)c1ccccn1` (stereo not drawn) was tested, and the Potency was inconclusive: 39.8 µM [inhibitor, partial curve, poor fit]. With `OC(c1ncc(-c2ccccc2)o1)C(F)(F)F` (stereo not drawn) the “activity change, negative = inhibition” value was inactive: 23.2%. With `O=C(Cc1ccc([N+](=O)[O-])cc1)Nc1ccc2oc(C3CC3)nc2c1` the “activity change, negative = inhibition” value was inactive: 6.12%. With `CCOc1ccccc1C(=O)NC(C(=O)OCc1ccccc1)C(C)C` (stereo not drawn) the “activity change, negative = inhibition” value was inactive: 7.57%. For `CCCCOc1ccc(CN2C(=O)C(=O)c3cc(Br)cc(C)c32)cc1OC`, the Potency was inconclusive: 28.2 µM [inhibitor, partial curve, poor fit]. With `Cc1nc(SCc2ccccc2)[nH]c(=O)c1CCC(=O)N1CCOCC1` the “activity change, negative = inhibition” value was inactive: -13%. For `COc1cccc(-c2cc(C(F)(F)F)nc(NCCc3ccccc3)n2)c1`, the Potency was inconclusive: 31.6 µM [inhibitor, partial curve, poor fit]. In the case of `Cc1nc(C)c(CCC(=O)Nc2cc(Cl)ccc2F)c(=O)[nH]1`, the “activity change, negative = inhibition” value is reported as inactive: 11.9%. With `CC(=O)Nc1cccc(C(C)NC(=O)Nc2cc(Cl)cc(Cl)c2)c1` (stereo not drawn) the “activity change, negative = inhibition” value was inactive: -4.17%. In the case of `COc1cccc(CNC(=O)CN(C)S(=O)(=O)c2ccc3[nH]c4c(c3c2)CCCC4)c1`, the Potency is reported as inconclusive: 28.2 µM [inhibitor, partial curve, poor fit]. In the case of `COc1ccc(-c2ocnc2C(=O)Nc2ccccc2C)cc1`, the “activity change, negative = inhibition” value is reported as inactive: -16.9%. `Cc1nc(-c2cccc(S(=O)(=O)N3C[C@@H](N)C[C@H]3C(=O)NC(C)C)c2)no1` was tested, and the “activity change, negative = inhibition” value was inactive: -17.2%. `COc1ccc(C(=O)NC2CCN(c3cc(-c4cccs4)[nH]n3)C2)cc1F` (stereo not drawn) was tested, and the Potency was inconclusive: 7.94 µM [inhibitor, partial curve]. With `FC(F)(F)c1ccc2nc([C@H]3CCN(C4CCOCC4)C3)[nH]c2c1` the Potency was inconclusive: 39.8 µM [inhibitor, single point]. For `O=C1NCCN2CC3(CCN(S(=O)(=O)c4cccc(F)c4)CC3)CC12` (stereo not drawn), the Potency was inconclusive: 12.6 µM [inhibitor, partial curve]. For `O=C1NCc2ccccc2CC12CCN(Cc1ccc3ccccc3c1)C2` (stereo not drawn), the “activity change, negative = inhibition” value was inactive: -25.1% [at 115 µM]. For `CNC(=O)c1ccn2cncc2c1`, the “activity change, negative = inhibition” value was inactive: -7500% [at 115 µM]. In the case of `CCNC(=O)c1cnc2c(-c3ccccc3)c(C)nn2c1C`, the “activity change, negative = inhibition” value is reported as inactive: 4.22%. For `Cc1cc(C(=O)N2CCC3(COc4ncccc4S(=O)(=O)N3)C2)no1` (stereo not drawn), the Potency was inconclusive: 39.8 µM [inhibitor, single point]. For `CC(C)CC1N=C2c3ccccc3N=C(SCC(=O)NCCc3ccc(Cl)cc3)N2C1=O` (stereo not drawn), the Potency was inconclusive: 14.1 µM [inhibitor, partial curve, poor fit]. `C[C@@H]1C(=O)O[C@H]2[C@H]1CC[C@@]1(C)Cc3sc(Nc4ccc(O)cc4)nc3[C@@H](C)[C@H]21` was tested, and the Potency was inconclusive: 22.4 µM [inhibitor, partial curve, poor fit]. With `CC(C)CCn1c(=O)c2sccc2n2c(CCCC(=O)NC(C)C)nnc12` the Potency was inconclusive: 11.2 µM [inhibitor, partial curve, poor fit]. `COc1ccc(-c2nc3cc(C)ccn3c2NC(=O)c2ccc(C)c(C)c2)cc1` was tested, and the Potency was inconclusive: 22.4 µM [inhibitor, single point]. In the case of `CCOC(=O)c1sc(Nc2ccc(C)cc2)nc1C`, the “activity change, negative = inhibition” value is reported as inactive: 1.24%. In the case of `CCCc1c(C)c2ccc(OCc3ccccc3)cc2oc1=O`, the Potency is reported as inconclusive: 2 µM [inhibitor, full curve, poor fit]. For `Cc1cn2nc(C(=O)NCc3ccc(Cl)cc3)cc2c(N(C)Cc2ccccc2)n1`, the Potency was active: 14.1 µM. For `O=C(NCc1nnc2c(-c3nc(C4CC4)no3)cccn12)c1cccc2[nH]ccc12`, the “activity change, negative = inhibition” value was inactive: -6.69%. With `Cc1nnc(-c2cc(-c3cccnc3)ccn2)n1C1CCCCC1` the “activity change, negative = inhibition” value was inactive: 10.8% [at 86.2 µM]. For `CCN(Cc1ccccc1)C(=O)c1cc(-c2ccncc2)cn1Cc1ccc(C)cc1`, the Potency was inconclusive: 25.1 µM [inhibitor, partial curve]. For `Cc1cccc(NC(=O)Cn2ccn3nc4c(c3c2=O)CCCCC4)c1C`, the Potency was inconclusive: 28.2 µM [inhibitor, partial curve, poor fit]. In the case of `COCCN1C(=O)c2cccn2CC1CNC(=O)c1[nH]nc2c1COc1ccccc1-2` (stereo not drawn), the Potency is reported as active: 28.2 µM. With `O=C(OCc1ccccc1)N1CCOCC12CCN(Cc1ccncc1)CC2` the Potency was inconclusive: 39.8 µM [inhibitor, partial curve, poor fit]. For `COc1cccc(CC(=O)NC2CCN(c3cc(-c4ccccc4)[nH]n3)CC2)c1`, the Potency was inconclusive: 28.2 µM [inhibitor, partial curve, poor fit]. For `OCc1cccc(-c2cc3c(cn2)CN(Cc2ccccc2)CCN3)c1`, the Potency was inconclusive: 35.5 µM [inhibitor, single point]. For `COc1cccc(C(=O)NC2CC(=O)N(c3ccc(Cl)cc3)C2)c1OC` (stereo not drawn), the “activity change, negative = inhibition” value was inactive: -6.09%. `CN(C)c1ccc(-n2c(CCC(=O)O)ccc2-c2ccccc2)cc1` was tested, and the Potency was inconclusive: 17.8 µM [inhibitor, partial curve, poor fit].
